Measurements published in paper PMC10668032.
Some of the results follow. At the low end of the ranking the order means little.

The sequences below were run against SIX1 homeodomain (reference allele) (UniProt Q15475) (assay: universal protein binding microarray). Conditions: Universal all-10-mer PBM (8x60K, AMADID 030236), 300 nM GST-tagged protein, Alexa Fluor 488 anti-GST; buffer, salt, pH and temperature not stated; high values mean tight binding; most listed sequences are background and not binding sites; double strand, one strand shown.

| Sequence | binding signal [E-score] |
| --- | --- |
| ATTGCCTA | 0.0953 |
| CAACCTTA | -0.189 |
| ACAGCTAC | -0.0216 |
| CATGCCGC | 0.0784 |
| AATCTGGC | 0.0437 |
| TCAACAGA | -0.0865 |
| AGGAGCCA | 0.135 |
| CATATCCA | 0.348 |
| AGATTTTG | -0.12 |
| CAAAGGAA | -0.257 |
| ATGTAGAA | 0.109 |
| GGATCGCA | 0.366 |
| AACTGGTG | 0.154 |
| AACTCGTC | -0.32 |
| AGGACTGA | 0.0143 |
| GCCGTGGA | -0.11 |
| GATCGCCC | 0.379 |
| CGGAGCTC | -0.0504 |
| TCGACCAA | -0.166 |
| AATAATAG | -0.00988 |
| GTGGAGTA | 0.167 |
| TGCCTTAA | -0.156 |
| AGAAGCCC | -0.0689 |
| CTCCCGAG | -0.0973 |
| AGGCGTTC | -0.2 |

| Sequence | binding signal [E-score] |
| --- | --- |
| AGCGGATA | 0.364 |
| ACGCGGTG | 0.0207 |
| TACCAACA | 0.107 |
| TCCCAGGA | 0.129 |
| ACACTTCT | 0.135 |
| GTTAGCGA | 0.0325 |
| AAAAGTTT | -0.329 |
| CCTGAGGC | -0.12 |
| CCCAATTA | 0.0162 |
| AGGATTAC | 0.106 |
| AAGGCTCC | -0.246 |
| CGAACGTA | -0.0237 |
| ATAAGAAC | -0.00959 |
| TCGCGGCA | -0.0108 |
| TCTAGTCA | -0.0793 |
| ATAAATAT | 0.168 |
| GCACGGCA | -0.324 |
| GGAATGCA | -0.242 |
| CAAATAGC | -0.191 |
| TAAGCGCA | -0.188 |
| TATGATAA | 0.17 |
| GCATAGCA | -0.187 |
| CAAGCCCG | -0.171 |
| ATTGTATC | 0.367 |
| GTGGCACA | -0.155 |

| Sequence | binding signal [E-score] |
| --- | --- |
| ACGCTGGA | -0.132 |
| GCGATACC | 0.483 |
| AACTGCGT | -0.237 |
| ATAGAACC | 0.00942 |
| AAAGGATT | 0.0331 |
| CTTGTATC | 0.266 |
| AGTTTATC | 0.117 |
| AGACATCA | -0.0801 |
| CATGCGTA | 0.0602 |
| GGACGCCC | -0.299 |
| ACTGTCCA | -0.049 |
| GATATTAA | 0.31 |
| GGATATAA | 0.352 |
| AAGCCCAA | -0.222 |
| CTGTGTCA | 0.0146 |
| GTGACCAA | -0.0791 |
| AGAACACT | -0.0901 |
| AATTTACA | -0.258 |
| AATAATAA | 0.0553 |
| GATCCCGC | 0.375 |
| CATAGTCA | -0.067 |
| ATAGCGAA | 0.135 |
| AGCGGGTA | 0.143 |
| CTGGTCCA | -0.014 |
| ATACGGAA | 0.218 |

| Sequence | binding signal [E-score] |
| --- | --- |
| CTCGAGAC | 0.0385 |
| AGTGTTTG | -0.159 |
| GGCGTGAC | -0.238 |
| AGGGGTAC | 0.178 |
| ACTTCGTA | -0.206 |
| GAAAAACA | -0.317 |
| AGAGACCT | -0.146 |
| CAAATGCA | -0.234 |
| AGGACGAT | 0.13 |
| GGCCTCAC | -0.201 |
| ATCTGGTA | 0.284 |
| CGGTCGCC | -0.0292 |
| CATATAGC | 0.162 |
| ACGAACGC | -0.26 |
| ATTGGGGA | 0.138 |
| AGATGTTC | -0.217 |
| ACCAGTAC | -0.0111 |
| ATGCCATC | 0.0271 |
| AGTTTCAT | 0.0286 |
| CGTCGTCC | -0.184 |
| AAAGGCAA | -0.276 |
| TCTGTACA | -0.103 |
| CCGCGTCC | -0.0692 |
| GCCGGAAC | -0.0482 |
| GCACGCGC | -0.222 |

| Sequence | binding signal [E-score] |
| --- | --- |
| CTTCTAAA | -0.0951 |
| GACAGAGC | -0.212 |
| ATTCGAAC | -0.0261 |
| AAGGCGCA | -0.139 |
| ACCTGTAA | -0.0894 |
| GGGCTGCA | -0.117 |
| CCTCAGGC | -0.065 |
| GCCCCGCC | 0.274 |
| ATGCATCA | 0.198 |
| AGTACGGC | -0.223 |
| AGTGCAGA | -0.0857 |
| ACGGAAAC | -0.276 |
| AGAATACT | 0.208 |
| GGCTGTCA | -0.194 |
| AACATAGA | -0.0344 |
| CAGTGCTC | 0.0264 |
| ATCATTCC | 0.291 |
| GGCTCGGA | 0.129 |
| GGCGAATA | 5.5e-05 |
| GCTGACCA | 0.0419 |
| GTCGTGTA | 0.096 |
| ACAGGAAC | -0.246 |
| TCCTTAGA | 0.0888 |
| CAGCCCAA | -0.118 |
| AGTCTACC | -0.0945 |

| Sequence | binding signal [E-score] |
| --- | --- |
| AACAAAGA | -0.186 |
| AATCCGCT | 0.191 |
| CCGCCCTA | 0.00773 |
| GAGCACTC | -0.0612 |
| GGCCTCTA | -0.106 |
| ACCCACTA | 0.139 |
| ATAGCCAG | 0.0395 |
| ATGGGGAC | 0.049 |
| ATTTGCTC | -0.193 |
| GTCCATGA | -0.0208 |
| GCGCGACC | -0.0719 |
| CTAGGATC | 0.36 |
| ACGTCGGC | -0.154 |
| CACCACCG | 0.139 |
| CTACCAGA | 0.079 |
| ACAATTGG | -0.154 |
| GCGACTCC | -0.22 |
| CGAAACAG | -0.121 |
| GAGATTAA | 0.00636 |
| AACACGAC | -0.0661 |
| AACACCGA | 0.228 |
| AATAGAAA | -0.184 |
| AGTCGAGC | -0.163 |
| GTTGTGGA | -0.129 |
| ACGACTAC | -0.162 |

| Sequence | binding signal [E-score] |
| --- | --- |
| AGCTGACG | -0.286 |
| CTGTGGTC | -0.0409 |
| CGACAGCA | -0.207 |
| CAGAAGTC | -0.265 |
| CGAACCGA | 0.112 |
| ACAGGAGG | -0.0838 |
| CATTGAAC | 2.5e-05 |
| CCCCCTAG | 0.0343 |
| CAAGAGAC | -0.0827 |
| ATCATGGC | 0.209 |
| AAAGCTAG | -0.0578 |
| GCACTAGC | 0.131 |
| GGATAATA | 0.328 |
| CGGCCTTA | -0.0827 |
| CGGGACGA | -0.171 |
| GATCTCTA | 0.165 |
| GCTCAGTA | 0.0698 |
| TAAACCTA | -0.0361 |
| TATCCCCA | 0.35 |
| TCGTTACA | 0.0617 |
| AGTATTCG | -0.0279 |
| CACTCAGC | -0.128 |
